# Data as given in PubChem BioAssay AID652104 (National Center for Advancing Translational Sciences (NCATS), 2013).
# Several values for one entry are separate records, joined by “and”; a condition that tells them apart may be missing. Identical values can stand only once. About 7,200 (1.8%) of roughly 410,000 compounds were called active. Inconclusive means that the source gave no clear call. Such entries were picked first, then a sample of the others. The call rests on the fitted dose curve; in most records, active means well fitted activation curve with a large enough effect; inconclusive means small, poorly fitted or top-dose-only effect, or another doubt; inactive means no such curve, though single readings can be large or run the other way. No potency is given beside an inconclusive call; the fits are too rough.
# Test: qHTS of TDP-43 Inhibitors; further: nearly all actives have a fitted effect of over 50% in size; on growth rescue (activation): % of control where 0% means no effect
# Conditions: TDP-43 expressing yeast growth rescue, BacTiter-Glo, 24 h; growth rescue (activation): at 46.1 µM (top of the series) unless noted
# Method in brief: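 In this qHTS, compounds that restore growth of yeast expressing TDP-43 appear as activators. Cells (OD600=0.02, galactose medium, raffinose-pregrown) are incubated with compound 24 hr at 30 deg C and growth is quantified by BacTiter-Glo.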
# Potency means the concentration at half of the fitted maximal effect; tags describe the fitted curve by direction and shape.
Structure (SMILES),Potency,growth rescue (activation)
CCCOC(=O)CCn1c(=S)oc2ccccc21,"inconclusive [activator, partial curve]",
O=C(Nc1cccc(Cl)c1N1CCOCC1)c1cccnc1Cl,"inconclusive [activator, partial curve]",
O=C(O)c1cccc(-c2csc(C(O)c3ccc(F)c(F)c3)n2)c1 (stereo not given),"inconclusive [activator, full curve, poor fit]",
O=C(O)CCN1C(=O)C(=C2CCCCCC2)SC1=S,"inconclusive [activator, partial curve]",
Cc1cccc(NC(=O)C2CCN(S(=O)(=O)c3ccc(F)cc3)CC2)c1C,"inconclusive [activator, full curve, poor fit]",
CCCCNC(=O)c1nn(-c2ccc(CC)cc2)nc1CO,"inconclusive [activator, partial curve]",
COc1ccccc1CNC(=S)NCCc1ccccc1,"inconclusive [activator, full curve, poor fit]",
O=C(Nc1cccc2nsnc12)c1cccs1,"inconclusive [activator, partial curve, poor fit]",
Cn1c(O)c(/C=C2\C=Nc3ccccc32)sc1=Nc1ccc(C(=O)O)cc1,,inactive: 2.33%
O=C(NC(=S)Nc1ccccc1N1CCCC1)c1ccccc1[N+](=O)[O-],"inconclusive [activator, partial curve]",
CC(=O)c1cccc(NC(=O)C2(C)Cc3c(-c4cccc(C(F)(F)F)c4)ccnc3O2)c1 (stereo not given),active: 35.5 µM,
COc1cccc2cc(-c3nc4ccccc4o3)c(=O)oc12,active: 3.16 µM,
c1ccc(N=Nc2cn[nH]c2-c2ccco2)cc1,"inconclusive [activator, single point]",
Cc1nnc(NC(=O)CSCc2cc(=O)c3cc(Cl)ccc3[nH]2)s1,,inactive: 8.91%
O=S(=O)(NCc1ccc(F)cc1)c1ccc(-c2cnc(C3CC3)o2)cc1,"inconclusive [activator, partial curve]",
CC(=O)c1ccc(NC(=S)NC(C)c2ccc(Cl)cc2Cl)cc1 (stereo not given),"inconclusive [activator, single point]",
C=Cc1ccc(Cn2c(C)c(C(=O)NCc3ccccc3C(F)(F)F)sc2=O)cc1,"inconclusive [activator, single point]",
COc1ccc(-c2nc(CSCC(=O)N3CCN(c4cccc(C)c4C)CC3)c(C)o2)cc1OC,"inconclusive [activator, single point]",
COc1cccc(C(=O)NCCNc2nc3cc(C)cc(C)c3cc2C#N)c1,,inactive: 9.98%
COc1ccc(-c2nc3c4ccccc4n(CC(=O)N4CCN(c5ccccc5OC)CC4)c(=O)n3n2)cc1,"inconclusive [activator, full curve, poor fit]",
COc1cccc(-n2cc(C(=O)NCCc3ccc(C)cc3)c3ccccc3c2=O)c1,,inactive: 0%
CN1CCN(S(=O)(=O)c2cccc(C(=O)Oc3ccccc3Cl)c2)CC1,,inactive: 19.2%
Cc1cc(C)n2nc(C(=O)N3CCCC(N4CCN(c5ccccc5C)CC4)C3)cc2n1 (stereo not given),,inactive: -8.38%
Cc1csc(NC(=O)CCCSc2nc3ccccc3s2)n1,"inconclusive [activator, single point]",

Structure (SMILES),Potency,growth rescue (activation)
COc1cc(O)c2c(c1)OC(c1ccc(O)cc1)CC2=O (stereo not given),active: 12.6 µM,
Cc1ccc2ccccc2c1COC(=O)c1nonc1N,"inconclusive [activator, single point]",
Cc1c(NC(=O)c2ccc(NC(=O)C3CC3)cc2)cccc1C(=O)O,,inactive: -7.44%
Cc1cccc(CSCCNC(=O)CCSc2ccccc2)c1,"inconclusive [activator, single point]",
CN(C)CCN(Cc1ccccc1)S(=O)(=O)c1ccc2[nH]c(=O)ccc2c1,,inactive: 18%
Clc1ccc(Oc2cccc(/C=N/n3cnnc3)c2)cc1,"inconclusive [activator, single point]",
O=C(COc1ccc(Br)cc1F)Nc1nnc(C2CC2)s1,"inconclusive [activator, full curve, poor fit]",
O=C(O)c1cc(-c2ccc(Cl)cc2)n(-c2cccc(Cl)c2)n1,"inconclusive [activator, single point]",
CC1(C)CC(=O)C(C=NCCN2CCN(C(=O)CCl)CC2)=C(O)C1,"inconclusive [activator, partial curve]",
S=c1[nH]nc(-c2ccc(Cl)cc2)n1-c1ccc2c(c1)OCCO2,,inactive: -0.677%
O=C(NCCn1ccc2ccccc21)c1cccc([N+](=O)[O-])c1,"inconclusive [activator, partial curve]",
Cc1nn2c(nc(N3CCCCC3)c3ccccc32)c1C=O,"inconclusive [activator, single point]",
CN(CC(=O)Nc1ccccc1Br)C(=O)c1ccccc1Cc1ccccc1,"inconclusive [activator, single point]",
Cc1ccc(S(=O)(=O)Nc2cccc3ncccc23)s1,"inconclusive [activator, single point]",
CCCCCCOC(=O)NCC(O)c1ccccc1 (stereo not given),"inconclusive [activator, single point]",
N#Cc1nc(-c2ccc(Cl)cc2)oc1NCc1ccco1,,inactive: 14.8%
O=C(Nc1ccccc1Cl)C1CCN(c2nc3ccccc3nc2C(F)(F)F)CC1,,inactive: 11.5%
Cc1cc(C)nc(Nc2ccc(Cl)cc2C)n1,"inconclusive [activator, partial curve]",
O=C(NCCn1cc(SCc2ccccc2Cl)c2ccccc21)c1cccs1,"inconclusive [activator, single point]",
COc1ccccc1NC(=O)Cn1c(SCC(=O)N(C)c2ccccc2)nc2ccccc21,,inactive: 0.378%
O=C1N(Cc2ccccc2)c2ccc(Cl)cc2C1(O)c1c[nH]c2ccccc12 (stereo not given),,inactive: 25.9%
COC(=O)CN1C(=S)N(Cc2ccccc2)C(=O)C1CC(=O)Nc1ccc(Br)cc1 (stereo not given),"inconclusive [activator, single point]",
COc1cccc2c1cc1c(=O)n(CC(=O)N3CCN(c4ccc(Cl)cc4)CC3)nc(C)n12,,inactive: 9.52%
O=C(COC(=O)c1nc(Cl)ccc1Cl)NCc1ccc(Cl)cc1Cl,"inconclusive [activator, single point]",

Structure (SMILES),Potency,growth rescue (activation)
NNC(=O)c1cc2cc3ccccc3nc2s1,"inconclusive [activator, single point]",
CN1CCN(/N=C/c2ccc(-c3ccc([N+](=O)[O-])cc3Cl)o2)CC1,"inconclusive [activator, partial curve]",
COc1ccc(NC(=O)CS(=O)c2ccc(F)cc2)cc1 (stereo not given),,inactive: -11.9%
O=C(CSc1nnc(SCc2ccccc2)s1)NNC(=S)Nc1ccccc1,"inconclusive [activator, partial curve]",
COc1ccc(-c2nc(C#N)c(NC(C)C)o2)cc1,"inconclusive [activator, single point]",
O=C(CS(=O)(=O)c1ccccc1)Nc1nc(-c2ccc(F)cc2)cs1,"inconclusive [activator, single point]",
CC1CCCCN1S(=O)(=O)c1ccc(C(=O)Nc2nnc(-c3ccncc3)o2)cc1 (stereo not given),"inconclusive [activator, partial curve, poor fit]",
O=S(=O)(Nc1cccc(Br)c1)c1cccc2nsnc12,"inconclusive [activator, single point]",
CC1(C)C(=O)CCC2(C)C1=CCC1C2C(=O)CC2(C)C1CCC2(O)C(=O)CO (stereo not given),"inconclusive [activator, partial curve, poor fit]",
C=CCN(c1ccc(C(=O)Nc2cccc([N+](=O)[O-])c2)cc1)S(C)(=O)=O,,inactive: 15.7%
CC(C)c1ccc(NC(=O)CS(=O)(=O)c2cccc3nsnc23)cc1,active: 25.1 µM,
CCn1ncc(Br)c1C(=O)N(C)C12CC3CC(CC(C3)C1)C2,"inconclusive [activator, partial curve]",
COc1ccc(CN2C(=O)C(CC(=O)NC3CCCCC3)CC(C(=O)N(C)C)=C2C)cc1 (stereo not given),,inactive: -3.64%
N#Cc1ccccc1NC(=O)CNc1ccccc1N1CCCCC1,"inconclusive [activator, single point]",
O=C(COc1ccccc1Cl)Nc1ccc(Cl)cn1,"inconclusive [activator, full curve]",
CCOc1cc(-c2noc(N)c2C#N)cc(OCC)c1OCC,"inconclusive [activator, partial curve]",
O=C(Nc1ccc(Cl)cn1)c1ccc([N+](=O)[O-])o1,"inconclusive [activator, single point]",
COc1ccc(-c2cc(C(F)(F)F)nc(S(C)(=O)=O)n2)cc1,active: 14.1 µM and active: 12.6 µM,
COc1ccc(-n2ccnc(NCc3ccccc3OC)c2=O)cc1,"inconclusive [activator, partial curve]",
CCOc1ccc(N2CC(NC(=O)/C=C\c3ccc4c(c3)OCO4)CC2=O)cc1 (stereo not given),,inactive: 22.9%
CCc1ccc(NC(=O)CO/N=C(\C)c2cc3ccccc3o2)cc1,"inconclusive [activator, single point]",
Cc1cccc(C)c1NC(=O)C(c1ccnc2ccccc12)n1c(=O)c(-c2ccccc2)nc2ccccc21 (stereo not given),"inconclusive [activator, single point]",
